# Source: the supplement of paper PMC10126150
# Values marked as one replicate rest on one cluster of the flow cell; about a third of the high ones do not repeat.
# Tested on: ATP
# Test: switch fluorescence ratio, 500 uM ATP over buffer (Cy3 cluster intensity, sum of 5 cycles each) (fold (ratio)); higher = stronger signal-on switching upon ATP binding; sequences stand for … in TCGTCGGCAGCGTCAGATGTGTATAAGAGACAGTTTTTTTTTTTTTTTTTTTTTTTTT…TC
# Settings: aptamer strand: ATP DNA aptamer (quencher-CACCTGGGGGAGTATTGCGGAGGAAGG + anchor), 100 nM annealed; ATP concentration: 500 uM; one replicate
# Summary of the method: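 Exposure to 500 uM ATP lasted 15 min at 22 °C before imaging, and a selection-buffer image was taken beforehand, for Cy3-labelled switching-strand clusters on a modified Illumina MiSeq flow-cell annealed to 100 nM quencher-labelled ATP aptamer. Five buffer/ATP cycles were run with NaOH stripping and re-annealing between them. The fluorescence ratio per cluster is summed target-cycle over summed buffer-cycle Cy3 intensity, averaged per switch-domain sequence. Clusters outside 100-1000 RFU were excluded.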
row,Sequence,switch fluorescence ratio
1,CGGTAAGTTA,0.989
2,CGGTAATAGG,0.993
3,CGGTAATTAA,1.01
4,CGGTACAACC,0.949
5,CGGTACATA,1.01
6,CGGTACTGTA,1.09
7,CGGTACTGTT,1.01
8,CGGTAGCCGT,0.961
9,CGGTAGGCGT,0.959
10,CGGTATTTTC,1.09
11,CGGTCAAAAG,0.962
12,CGGTCAGAGA,0.965
13,CGGTCAGCTA,1.06
14,CGGTCAGTCG,1
15,CGGTCATGAA,1.01
16,CGGTCATTTC,1.06
17,CGGTCCAGAA,1.01
18,CGGTCCTCA,1.02
19,CGGTCGAAAC,1.01
20,CGGTCGCCCA,1.02
21,CGGTCGGTTC,1.01
22,CGGTCTATGA,0.988
23,CGGTCTTACG,0.989
24,CGGTCTTGGA,1.01
25,CGGTGACATA,1.02
26,CGGTGTCTTG,0.963

row,Sequence,switch fluorescence ratio
1,CGGTGTGATA,1.01
2,CGGTGTGTCG,0.943
3,CGGTTAAC,1.04
4,CGGTTACGTA,0.971
5,CGGTTAGTAA,0.995
6,CGGTTATAAC,1.03
7,CGGTTATTC,1.04
8,CGGTTCGAGC,1.02
9,CGGTTGCGAG,1.03
10,CGGTTGCGCT,0.987
11,CGGTTTCCTA,0.997
12,CGGTTTCGCT,1
13,CGGTTTCGG,0.995
14,CGGTTTGTGA,0.99
15,CGTAAACAGC,0.981
16,CGTAAAGTTT,0.97
17,CGTAACTGAT,0.979
18,CGTACCGGGG,1.04
19,CGTACGACCA,1.08
20,CGTACGGCAT,1.07
21,CGTACTGGCA,1
22,CGTACTGGTG,1.01
23,CGTAGAAAGC,1
24,CGTAGAAGTC,1.03
25,CGTAGAATTG,0.957
26,CGTAGAGAAT,3.93

row,Sequence,switch fluorescence ratio
1,CGTAGAGAGA,1.01
2,CGTAGAGATA,0.991
3,CGTAGATGGA,1.04
4,CGTAGATTCA,1.15
5,CGTAGCGGAG,1.08
6,CGTAGCGGCT,1.11
7,CGTAGGTTGA,1.03
8,CGTAGTCTGA,1.01
9,CGTAGTGGTC,1.05
10,CGTATAAGCT,0.927
11,CGTATACAA,1.03
12,CGTATAGCGT,0.995
13,CGTATGCTTC,1.05
14,CGTATGTGTA,0.99
15,CGTATTAAGG,0.917
16,CGTATTCCCG,0.968
17,CGTATTGGTT,1.01
18,CGTATTTT,0.937
19,CGTCAAATTA,1.03
20,CGTCAACCGT,0.976
21,CGTCAATCAA,1.23
22,CGTCAGGACA,1
23,CGTCAGGAGA,0.99
24,CGTCATAGTG,0.981
25,CGTCATATTC,1.19
26,CGTCATGACC,1.05

row,Sequence,switch fluorescence ratio
1,CGTCCCACGC,1.23
2,CGTCCGGGCT,1.03
3,CGTCGAACTG,1
4,CGTCGACCGA,0.981
5,CGTCGATCGG,1.03
6,CGTCGATCTC,1.12
7,CGTCGCAGGT,1.12
8,CGTCGCGTTC,1.06
9,CGTCGGAACT,0.967
10,CGTCGTACCT,1.07
11,CGTCGTCTTT,1.04
12,CGTCTAAAGA,1.04
13,CGTCTAGGAG,0.974
14,CGTCTAGTTT,0.991
15,CGTCTATAAC,1.31
16,CGTCTGAGCT,1.04
17,CGTCTGAT,0.99
18,CGTCTTCTAG,0.935
19,CGTGACATTA,1.03
20,CGTGACGGAA,1
21,CGTGACTTC,1.04
22,CGTGAGCTTC,1.11
23,CGTGAGGCTG,0.948
24,CGTGAGGTCT,1.09
25,CGTGCAGCGA,1.05
26,CGTGCAGGGA,0.979

row,Sequence,switch fluorescence ratio
1,CGTGCCTGGG,0.995
2,CGTGCGATAA,1.54
3,CGTGCTGCCA,1.02
4,CGTGCTTCCT,1.11
5,CGTGGAACAG,1.04
6,CGTGGAATAT,0.988
7,CGTGGAATTC,1.05
8,CGTGGAGAAA,1.01
9,CGTGGAGATG,1.07
10,CGTGGATATT,1.04
11,CGTGGCAAGG,1.06
12,CGTGGCCGCC,1.01
13,CGTGGCTTCA,1.02
14,CGTGGGACGT,1
15,CGTGGTGAAA,0.99
16,CGTGGTTCCC,1.05
17,CGTGTATACA,1.01
18,CGTGTATAT,0.995
19,CGTGTCCTTT,0.954
20,CGTGTCTC,1.01
21,CGTGTGAGCG,1.02
22,CGTGTGTAGC,0.984
23,CGTGTGTATA,1.04
24,CGTGTTAAG,0.984
25,CGTGTTTTG,0.955
26,CGTTAACGAG,0.988

row,Sequence,switch fluorescence ratio
1,CGTTAACTT,1.05
2,CGTTACACTT,1.01
3,CGTTAGTGAC,1.02
4,CGTTCAATTG,0.988
5,CGTTCACACG,0.993
6,CGTTCACTTA,1.01
7,CGTTCAGAGA,0.984
8,CGTTCAGTAT,1.01
9,CGTTCCGATG,1.43
10,CGTTGAGCAT,1.13
11,CGTTGAGGCT,1.02
12,CGTTGAGTAG,1.01
13,CGTTGCGCGG,1.01
14,CGTTGGAGAC,1.02
15,CGTTGGGTAG,1.04
16,CGTTGGTTGT,0.986
17,CGTTGTTTCG,1.03
18,CGTTGTTTTT,1.01
19,CGTTTAAGGC,1.04
20,CGTTTAATGC,1.19
21,CGTTTCCCCT,1.27
22,CGTTTCCGG,0.951
23,CGTTTCGATA,1.03
